Laboratory results: PubChem BioAssay AID1240 (Sanford-Burnham Center for Chemical Genomics, 2008)
Screen size: about 50,000 compounds; about 800 (1.6%) showed an effect of 50% or more. This is one part of the list.

target: Bcl-2-like protein 10 (Homo sapiens) (UniProt Q9HD36); assay: Phenotype converters, Bcl-B/TR3 peptide binding displacement, primary biochemical FP (AID 1240); details: GST-Bcl-B / FITC-TR3 peptide fluorescence polarization; stronger effect = higher value; compound at 3.75 mg/L;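 note: 0% = Bcl-B with tracer peptide and DMSO and 100% = tracer peptide lacking Bcl-B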
Chain of UniProt Q9HD36 (Q9HD36 whole entry, looked up): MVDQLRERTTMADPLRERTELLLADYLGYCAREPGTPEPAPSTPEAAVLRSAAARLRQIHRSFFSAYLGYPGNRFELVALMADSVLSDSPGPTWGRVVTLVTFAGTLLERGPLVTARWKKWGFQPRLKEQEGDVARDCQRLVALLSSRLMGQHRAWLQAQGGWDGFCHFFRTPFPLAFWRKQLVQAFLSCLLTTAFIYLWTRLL

First: CC(C)NC(=O)C1C(C=C(Cl)Cl)C1(C)C (stereo not drawn)
Second: CCOc1cc(C2NC(=S)NC(C)=C2C(=O)OC(C)C)ccc1O (stereo not drawn)
The displacement of the first is higher: 11.8% for the first, 8.3% for the second.

Compared with `COc1ccc(CN2CCN(S(=O)(=O)c3ccc(C)cc3)CC2)cc1OCc1ccccc1`, `O=S(=O)(c1ccccc1)N1CCN(Cc2ccccn2)CC1` is higher in displacement: 12.1% for the first, 13.4% for the second.

Going from `CCOc1ccc(S(=O)(=O)Nc2ccccc2OC)cc1` to `CCOc1ccc(N(CC(=O)N2CCN(c3ccccc3)CC2)S(C)(=O)=O)cc1`, the displacement rises from -1.3% to 2.6%.

Going from `COc1ccc(/C=C2\SC(=S)N(NC(=O)c3ccccc3Br)C2=O)cc1` to `COc1ccc(/C=C(/NC(=O)c2ccccc2Cl)C(=O)O)cc1`, the displacement rises from -11.6% to -4.9%.

First: Brc1ccc(-c2nnc(SCc3ccccc3)o2)cc1
Second: Nc1cc(-c2ccc(Br)cc2)nn1-c1ccccc1
The displacement of the first is lower: -4.5% for the first, -2.7% for the second.

Compared with `O=C(CC(c1ccccc1)c1ccccc1)NCC1CCCO1` (stereo not drawn), `CN(C(=O)C(c1ccccc1)c1ccccc1)c1ccccc1` is higher in displacement: 6.3% for the first, 11.8% for the second.

Compared with `CCCN(CCC)C(=O)c1cccc(Cl)c1`, `CC(=O)C1=C(O)C(=O)N(CCN(C)C)C1c1cccc(F)c1` (stereo not drawn) is lower in displacement: -6.9% for the first, -9.1% for the second.

First: O=C(Nc1cccc(OC(=O)c2cc(S(=O)(=O)N3CCCCC3)ccc2Cl)c1)c1ccco1
Second: CCOC(=O)c1c(-c2ccc(-c3ccccc3)cc2)csc1NC(=O)c1ccco1
The displacement of the first is lower: 8.7% for the first, 16.8% for the second.

Going from `COc1ccccc1NC(=O)CN1C(=O)c2ccccc2C1=O` to `COc1cccc(N2C(=O)c3cccc4cccc(c34)C2=O)c1`, the displacement falls from 17.1% to 11%.

Going from `CCOC(=O)c1c(NC(=O)/C=C/c2ccco2)sc2c1CCCC2` to `CCC(C)(C)C1CCc2c(sc(NC(=O)c3ccccc3Br)c2C(N)=O)C1` (stereo not drawn), the displacement falls from 10.1% to 0%.

Going from `CN(C)c1ccc(/C=N/N=C2/NC(=O)C(Cc3ccc(Cl)cc3)S2)cc1` (stereo not drawn) to `COC(=O)c1ccc(/C=C2\C(=O)NC(=O)N(c3ccc(Cl)cc3)C2=O)cc1`, the displacement rises from -6.1% to 9.5%.

Compared with `CN(C)c1nc(-c2ccccc2)c(N)c(-c2ccccc2)n1`, `C/C(=N\Nc1cc(-c2ccccc2)nc(C)n1)c1ccc(N)cc1` is lower in displacement: 4% for the first, -9% for the second.

Going from `COCCOC(=O)c1c(C)oc2ccc(OC)cc12` to `COCCOC(=O)c1ccc(NC(=O)COc2ccc(Cl)cc2Cl)cc1`, the displacement falls from 5.9% to -2.3%.

First: O=C1Nc2ccc(Br)cc2C(c2ccccc2Cl)=N/C1=C/c1ccoc1
Second: CC(=O)N(C1=C(Cl)C(=O)c2ccccc2C1=O)c1ccc(Br)cc1
The displacement of the first is lower: 8.2% for the first, 22.1% for the second.

Going from `Cc1ccc(Nc2cc(-n3cccn3)ncn2)cc1` to `CCc1ccc(NC(=O)COc2ccc(C)cc2)cc1`, the displacement falls from 12% to 10.2%.

First: COc1cccc(OCCOc2ccccc2)c1
Second: COc1ccc(/C=C2N=C(/C=C/c3ccccc3)OC/2=O)cc1
The displacement of the first is lower: -2.3% for the first, 88.6% for the second.

First: CS(=O)(=O)N(CC(=O)Nc1ccccc1)c1ccc(Oc2ccccc2)cc1
Second: O=C(CN(c1ccccc1)S(=O)(=O)c1ccccc1[N+](=O)[O-])Nc1ccc(Br)cc1
The displacement of the first is higher: 2.8% for the first, -1.3% for the second.

First: CCOc1ccccc1CN1CCN(Cc2cc(Br)ccc2O)CC1
Second: COC(=O)CN1C(CN2CCOCC2)=Nc2ccc(Br)cc2C1c1ccccc1 (stereo not drawn)
The displacement of the first is lower: -13% for the first, -3.3% for the second.

Compared with `CCCCN(CCCC)CC(O)COc1ccccc1C(=O)Nc1ccccc1` (stereo not drawn), `O=C(Nc1ccccc1)c1ccccc1NC(=O)c1ccccc1[N+](=O)[O-]` is lower in displacement: 8.2% for the first, -11.5% for the second.

Compared with `CC(=O)Nc1ccc(N2CCOCC2)cc1`, `O=C1NC(=S)N(c2ccc(Br)cc2)C(=O)/C1=C/c1ccc(N2CCOCC2)o1` is higher in displacement: 8.8% for the first, 11.2% for the second.

First: CC(C)(C#CCN1CCCC1)OCCC#N
Second: Clc1ccc(OCCOCCN2CCCCC2)c2ccccc12
The displacement of the first is lower: -18.2% for the first, 7.3% for the second.

Going from `CC(C)Sc1nc2ccc(N3C(=O)C4CCCCC4C3=O)cc2s1` (stereo not drawn) to `Cc1cccc(NCN2C(=O)C3CCCCC3C2=O)c1` (stereo not drawn), the displacement rises from -3.5% to 9.8%.

Going from `Cc1ccc(/C=C/C(=O)NCCCN2CCOCC2)o1` to `Cc1cc(Cl)c(OCCN2CCOCC2)c(Cl)c1`, the displacement rises from -3% to 0.8%.

Compared with `CCc1ccc(NC2=C(Cl)C(=O)N(c3ccc(Br)cc3)C2=O)cc1`, `CCc1ccc(NC(=O)c2c(-c3c(Cl)cccc3Cl)noc2C)cc1` is higher in displacement: 7.4% for the first, 12% for the second.

Going from `O=C1CC(CSc2nnc(-c3ccc(Cl)cc3)n2-c2ccccc2)=NN1` to `O=C(O)CCN1C(=O)/C(=C/c2cn(-c3ccccc3)nc2-c2ccc(Br)cc2)SC1=S`, the displacement rises from -7.5% to 20.5%.

Compared with `CCc1ccccc1NC(=O)c1c(NC(=O)Cc2ccccc2)sc(-c2ccccc2)c1C`, `COc1ccc(-c2cc(C(=O)Nc3ccccc3I)c3ccccc3n2)cc1` is lower in displacement: 8% for the first, -9.5% for the second.

First: COc1ccc(C2(CNC(=O)C3COc4ccccc4O3)CCCC2)cc1OC (stereo not drawn)
Second: COc1ccc(CC(=O)Nc2ccc(-c3nc4ccccc4o3)c(O)c2)cc1OC
The displacement of the first is lower: 8.7% for the first, 33.1% for the second.

Compared with `COC(=O)C1=C(C)N(c2ccc(OC)cc2)C(C)=C(C(=O)OC)C1c1ccc(OC)cc1`, `COc1ccc(C=C2C(=O)N(c3ccc(C)cc3)C(=S)N(c3ccc(C)cc3)C2=O)cc1C(=O)O` is higher in displacement: -5.4% for the first, 15% for the second.

Compared with `O=C(Nc1ccc(O)c(-c2nc3cc(Cl)ccc3o2)c1)c1ccccc1`, `COc1cc(C(=O)Nc2ccc(C(=O)O)cc2)c2ccccc2n1` is higher in displacement: -50.3% for the first, -0.3% for the second.

First: CNC(=O)CN(c1cccc([N+](=O)[O-])c1)S(=O)(=O)c1ccccc1
Second: CC(=O)Nc1cc([N+](=O)[O-])ccc1Nc1ccccc1
The displacement of the first is lower: -3.8% for the first, 1.3% for the second.

Going from `Cc1ccc(N2C(=O)NC(=O)/C(=C\c3cc(Cl)c(OCC(=O)O)c(Cl)c3)C2=O)cc1` to `Cc1ccc(N2C(=O)NC(=O)/C(=C\c3cc(Cl)c(O)c(Cl)c3)C2=O)cc1`, the displacement rises from -11.9% to -7.8%.

First: COc1ccc(C(=O)CSc2ncn[nH]2)cc1
Second: CCCCCC(=O)NNC(=O)Cc1ccc(OC)cc1
The displacement of the first is higher: 13.6% for the first, -3.2% for the second.

Compared with `Cc1ccc(/C(O)=C/c2nc3ccc([N+](=O)[O-])cc3oc2=O)o1`, `COc1cc(/C=C/c2ccc([N+](=O)[O-])cc2[N+](=O)[O-])ccc1O` is higher in displacement: -6.6% for the first, 2.3% for the second.

Compared with `CCOc1ccc(C(=O)NC(C)(C)C)cc1[N+](=O)[O-]`, `CCOc1ccc2c(C)cc(=O)oc2c1C` is lower in displacement: 6.5% for the first, -1.1% for the second.

Going from `CCOC(=O)C1=C(O)/C(=C\c2ccc3c(c2)OCO3)SC1=Nc1ccccc1` to `O=C(COc1ccc(Cl)cc1Br)N/N=C/c1cccc(OC(=O)c2ccc3c(c2)OCO3)c1`, the displacement rises from -18.2% to 11.8%.

Going from `CCc1ccc(-c2nc3cc(NC(=O)COc4ccc([N+](=O)[O-])cc4)ccc3o2)cc1` to `O=C(O)CCC(=O)Nc1ccc(-c2nc3cc4ccccc4cc3[nH]2)cc1`, the displacement rises from -6.4% to -3.2%.

Compared with `COc1ccc(Cl)cc1N(CC(=O)NCc1ccncc1)S(=O)(=O)c1ccc(C)cc1`, `Cc1ccccc1NC(=O)CSc1cc(Cl)ccc1Cl` is higher in displacement: -4.1% for the first, 17.5% for the second.

Compared with `Cc1ccc(-c2csc(NC(=O)c3ccc([N+](=O)[O-])s3)n2)c(C)c1`, `CC(C)(C)c1csc(NC(=O)c2cccnc2)n1` is lower in displacement: 12.6% for the first, 6.5% for the second.

First: N#CCC(=O)N/N=C/c1ccc(O)cc1O
Second: Cc1ccc(NCC(=O)N/N=C\c2ccccc2OCC(=O)O)cc1
The displacement of the first is higher: 15.2% for the first, 3.3% for the second.

Going from `CC(=O)n1cnc2c(c1=O)C1(CCCC1)Cc1ccccc1-2` to `O=C(c1ccccc1Br)N1CCCCC1CO` (stereo not drawn), the displacement falls from 6.2% to -8%.

First: CC1(c2ccccc2)CC(C)(C)N(C(=O)CSc2nnc(N)s2)c2ccccc21 (stereo not drawn)
Second: Cc1nccn1CC(=O)N1c2ccccc2Sc2ccccc21
The displacement of the first is higher: 12.3% for the first, 9.9% for the second.

Compared with `Cc1ccc(/C(O)=C2/C(=O)C(=O)N(CCCCCC(=O)O)C2c2ccc(F)cc2)cc1` (stereo not drawn), `Cc1ccc(N2C(=O)NC(=O)/C(=C/c3ccc(-c4ccc(F)cc4)o3)C2=O)cc1` is higher in displacement: -12.3% for the first, 40.5% for the second.

Going from `CN(C)CCC(=O)c1ccc2c(c1)OCO2` to `Cc1cc(C(=O)COC(=O)c2ccc3c(c2)OCCO3)ccc1Br`, the displacement falls from -2.9% to -14.8%.

First: COc1ccccc1N1CCN(C(=O)Cc2ccc(Cl)cc2)CC1
Second: O=C(COc1ccc(Cl)cc1)N1CCN(C(=O)c2ccc(-c3ccccc3)cc2)CC1
The displacement of the first is higher: -3.1% for the first, -20.5% for the second.

Going from `CC1=C(C(=O)OCc2ccccc2)C(c2cccc(Br)c2)C2=C(CC(C)(C)CC2=O)N1` (stereo not drawn) to `O=C1CC(c2ccccc2)CC2=C1C(c1ccccn1)Nc1ccccc1N2` (stereo not drawn), the displacement falls from 5.2% to -0.9%.

Going from `C=CCOc1ccc(/C=C/C(=O)c2cccc(Br)c2)cc1` to `O=C(/C=C/c1ccccc1)Nc1ccc2ccccc2n1`, the displacement falls from 0.7% to -1.1%.

First: O=[N+]([O-])c1ccc(N2CCN(S(=O)(=O)c3ccccc3)CC2)cc1Sc1cccc2cccnc12
Second: O=C(c1ccncc1)N1CCN(Cc2cccc(Oc3ccccc3)c2)CC1
The displacement of the first is higher: 9.7% for the first, -7.2% for the second.

Going from `O=C1CCC(C(=O)O)(c2ccccc2)N1c1ccccc1` (stereo not drawn) to `Cc1cccc(/C=C2\C(=O)NN(c3ccccc3)C2=O)c1`, the displacement rises from 0.2% to 17.6%.

Going from `CC(C)(C)c1csc(N/N=C\c2ccccc2)n1` to `CCN(CC)c1ccc(/C=N/c2nc(-c3ccccc3)c(C)s2)cc1`, the displacement rises from -3.8% to 4.4%.

Going from `Nc1nc(Oc2ccc(F)cc2)c(I)c(=O)[nH]1` to `COc1cc(/C=N\n2nnnc2N)ccc1OCc1ccc(F)cc1`, the displacement rises from -4.8% to 10.6%.

Compared with `CCn1ccnc1C(O)c1cccc(OC)c1OC` (stereo not drawn), `COc1cccc(OC)c1OCCCCOc1c(OC)cccc1OC` is higher in displacement: -1.3% for the first, 16.4% for the second.

First: CCC(=O)Oc1cc2oc(=O)c(CC)c(C)c2cc1CC
Second: Cc1oc(C(=O)O)cc1CSC(C)C(=O)O (stereo not drawn)
The displacement of the first is higher: 10.1% for the first, 8.5% for the second.

Compared with `COc1ccc(CSCC(=O)O)cc1C(=O)O`, `COC(=O)c1ccccc1NC(=O)COc1ccc(Cl)c(C)c1` is higher in displacement: -8.5% for the first, -0.4% for the second.

Compared with `O=C(Nc1ccc(OC(F)(F)F)cc1)c1cccnc1`, `C#Cc1cccc(N2C(=O)c3ccc(C(=O)O)cc3C2=O)c1` is higher in displacement: -2.9% for the first, 3.3% for the second.

Compared with `Cc1ccc(C2=CC(c3ccccc3)=N/C(=C(\C#N)C(N)=O)N2)cc1`, `N/C(=C\C(=O)/C=C\c1ccccc1)C(Cl)(Cl)Cl` is lower in displacement: -2.5% for the first, -14.3% for the second.

Compared with `O=c1oc(-c2cccs2)nc2ccc(Cl)cc12`, `O=Cc1ccc2c3c(onc13)-c1ccccc1C2=O` is higher in displacement: -1.3% for the first, 10.6% for the second.

Work on `Cc1ccc(C(=O)N(C)C2CCCCC2)cc1[N+](=O)[O-]` yielded a displacement of 2.8%.
